Measured values from PubChem BioAssay AID488895 (Broad Institute, 2010).
Screen size: about 340,000 compounds; about 120 (0.035%) were called active. The shares of active, inactive and inconclusive entries below differ from those in the screen.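 The calls were made as follows: active = mean replicate inhibition at least 50% and at least half of replicates individually reaching 50%; inconclusive = only one of the two criteria met; inactive = neither criterion met.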

Assay: E. coli Tat export inhibitors, primary screen, MC4100, TorA-mCherry reporter, fluorescence, single point (AID 488895);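 also: exported cargo escapes ClpAP degradation while cytoplasmic cargo is degraded and loses fluorescence; 0% = median of neutral control wells and 100% = median of NaSCN control wells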
Settings: at 10 µM, hits give high values

SMILES | inhibition
COc1ccc(S(=O)(=O)N2CCOCC2)cc1NC(=O)c1ccc2c(c1)OCO2 | inconclusive: 36.3%
Cc1cc(=O)[nH]c(Sc2c(-c3ccccc3)c3ccccc3[nH]c2=O)n1 | inconclusive: 26.7%
CSc1sc(C)cc1/C=N/O | inactive: -3.38%
O=C1CN(S(=O)(=O)c2ccccc2C(F)(F)F)CCN1 | inconclusive: 38.7%
CC(C)(C)CC(=O)Nc1ccc(Nc2ccccc2)cc1 | inconclusive: 36.3%
C=CCN(CC=C)S(=O)(=O)c1ccc(NC(=S)NC(=O)C2CC2)cc1 | inconclusive: 28.8%
COc1cc2cc(CN(CCO)S(=O)(=O)c3ccccc3Cl)c(=O)[nH]c2cc1OC | inconclusive: 32.6%
CS(=O)(=O)N1CCN(CCN2C(=O)c3cccc4cccc(c34)C2=O)CC1 | inactive: -1.01%
CCCSc1nnc(CNS(=O)(=O)c2ccc(C)cc2)n1C | inconclusive: 32.2%
O=C(/C=C(\c1ccccc1)n1cncn1)c1ccccc1 | inactive: 3.13%
COc1cc(CN(C2CCCCC2C)S(=O)(=O)c2ccc(S(=O)(=O)NC3CC3)cc2)cc(OC)c1OC (stereo unspecified) | inconclusive: 39%
CC(C)N(c1ccccc1)c1ccc(NC(=O)COC(=O)CCN2C(=O)c3cccc([N+](=O)[O-])c3C2=O)cc1 | inconclusive: 42.3%
CC(NC(=O)CSc1nc2sc3c(c2c(=O)n1-c1ccccc1)CCCC3)c1ccccc1 (stereo unspecified) | inconclusive: 33.9%
O=C(c1ccccc1F)N1C(=O)c2cccc3cccc1c23 | inconclusive: 32.5%
COc1ccc(OC)c(S(=O)(=O)N2CCC(C(=O)NC3CC3)CC2)c1 | inconclusive: 29.7%
COc1ccc(N2CCN(C(=O)C3CCCN(S(=O)(=O)c4cccc5cccnc45)C3)CC2)cc1 (stereo unspecified) | inconclusive: 27.1%
CCn1cc(C(=O)O)c(=O)c2cc(F)c(N3CCN(C(=S)NC(=O)c4ccccc4C)CC3)cc21 | active: 58.6%
COc1cc(C2Nc3cc(Cl)c(S(N)(=O)=O)cc3S(=O)(=O)N2)cc(OC)c1OC (stereo unspecified) | inactive: -2.14%
Cc1ccc(-c2nn(-c3ccccc3)cc2CO)cc1 | inactive: 12.1%
CC(=O)N1CCN(c2cc3c(cc2F)c(=O)c(C(=O)O)cn3C2CC2)CC1 | active: 62.4%
Cc1nn(C)c(C)c1S(=O)(=O)N(CC(=O)NCCCN1CCC(C)CC1)c1ccc(C(C)C)cc1 | inconclusive: 36.8%
CC(=O)c1ccc(NC(=O)C2CCCN2S(=O)(=O)c2cccc3cccnc23)cc1 (stereo unspecified) | inconclusive: 29.3%

SMILES | inhibition
O=C(NCCNC(=O)c1ccccc1F)c1ccccn1 | inconclusive: 24.9%
COc1ccc(C(=O)O/N=C(\N)c2ccc(Br)cc2)cc1 | inconclusive: 23.4%
N#Cc1cccc(C(=O)OCC(=O)NCc2ccco2)c1 | inconclusive: 27.4%
COc1ccccc1OCCNC(=O)Cc1ccc(S(=O)(=O)N2CCOCC2)s1 | inconclusive: 26.6%
O=c1[nH]c(N2CCCCC2)nc2c1CCCC2 | inconclusive: 34.9%
Cc1cccc(CS(=O)(=O)c2ncc(Cl)c(C(=O)Nc3nnc(C(C)C)s3)n2)c1 | inconclusive: 36.2%
O=c1oc2ccccc2c(N2CCC(c3ccccc3)CC2)c1[N+](=O)[O-] | inconclusive: 25%
CCOCCOc1nc2c(c(=O)n(C)c(=O)n2C)n1Cc1ccc(C)cc1 | inconclusive: 26%
Cc1ccc(NC(=O)CCCc2nc3ccccc3s2)c(O)c1 | inconclusive: 30.1%
Cc1cccc(OCC(O)Cn2c(=N)n(CCN3CCOCC3)c3ccccc32)c1 (stereo unspecified) | inconclusive: 24.9%
C[C@H]1c2cccc(O)c2C(O)=C2C(=O)[C@]3(O)C(O)=C(C(N)=O)C(=O)[C@@H](N(C)C)C3[C@@H](O)C21 (stereo partly specified) | active: 146%
CCCc1cc(=O)[nH]c2nnc(SCC(=O)Nc3ccc4c(c3)OCCO4)n12 | inconclusive: 22.2%
CCCC(=O)NC1=C(C#N)C2(CCCC2)Cc2ccccc21 | inconclusive: 36.1%
CC(C)=CCc1c(O)ccc(C2COc3c(CC=C(C)C)c(O)cc(O)c3C2=O)c1O (stereo unspecified) | inactive: 18.1%
O=C(NCC1CCCO1)c1ccc(S(=O)(=O)Nc2ccccc2F)cc1 (stereo unspecified) | inactive: -0.522%
CCCCn1c(N)c(N(CCOC)C(=O)COC(=O)C(C)Oc2ccc(Cl)cc2)c(=O)[nH]c1=O (stereo unspecified) | inconclusive: 28%
Cc1ccnc(NC(c2cccnc2)c2ccc3cccnc3c2O)c1 (stereo unspecified) | inconclusive: 40.8%
O=C(CNc1ccc(Cl)cc1)c1ccc(Br)cc1 | inconclusive: 26.6%
Cc1cc(C(=O)CN2C(=O)C3CC=CCC3C2=O)c(C)n1-c1ccccc1 (stereo unspecified) | inconclusive: 30.4%
CCSC1=C(C#N)C(c2ccc(Cl)cc2)C2=C(CCCC2=O)N1 (stereo unspecified) | inconclusive: 22.4%
O=C1C=CC(=O)N1c1cccc(-c2ccccc2)c1 | inactive: 3.82%
C#CC[N+]1(CC#Cc2ccc(C#CC[N+]3(CC#C)CCOCC3)cc2)CCOCC1 | inconclusive: 41.7%

SMILES | inhibition
Cc1ccc(-n2c3nc(=O)[nH]c(=O)c-3cc3c(C)nn(-c4ccccc4)c32)c(C)c1 | inconclusive: 29.2%
CCCCC(CC)CN=C(N)NC(N)=NCCCCCCN=C(N)NC(N)=NCC(CC)CCCC (stereo unspecified) | active: 75.9%
Cc1ccnc(SCC(=O)c2cccs2)n1 | inconclusive: 37.8%
CCC(=O)NCCc1nc2cc(NC(=O)c3cccc([N+](=O)[O-])c3)ccc2n1C | inactive: -4.16%
CCn1cc(C(=O)O)c(=O)c2cc(F)c(N3CCN(S(=O)(=O)c4ccc(NC(C)=O)cc4)CC3)cc21 | inactive: 8.3%
c1ccc(Nc2nc(Nc3ccccc3)nc(N3CCNCC3)n2)cc1 | inconclusive: 26.7%
CN(C(=O)CN(CCO)CC(=O)N(C)C(C)(C)Cc1ccccc1)C(C)(C)Cc1ccccc1 | inactive: 19.2%
O=C(CCNS(=O)(=O)c1ccccc1C(F)(F)F)N1CCN(c2ccccc2O)CC1 | inconclusive: 28.1%
COc1ccc(CCNCC(O)COc2c(C)cccc2C)cc1OC (stereo unspecified) | inconclusive: 23.8%
COc1cccc(NC(=O)Nc2cnccn2)c1 | inconclusive: 38.3%
COC(=O)C1=NNC(C(=O)OC)C1c1ccccc1 (stereo unspecified) | inactive: -9.77%
O=C(O)CC(NCc1ccco1)C(=O)OCCc1ccccc1 (stereo unspecified) | inconclusive: 37.3%
Cc1cc2c(c(=O)n1Cc1ccccn1)C(c1ccc3c(c1)OCO3)C(C#N)=C(N)O2 (stereo unspecified) | inactive: -9.09%
O=c1oc(-c2ccccc2)nc2sc3c(c12)CCCC3 | inconclusive: 27.4%
CC1CCN(c2ccc(C(=O)NCc3ccco3)cc2[N+](=O)[O-])CC1 | inconclusive: 27.8%
Cc1cc(-c2c(C)[nH]n(-c3ccc(Cl)cc3)c2=O)n(-c2ccc(Cl)cc2)n1 | inconclusive: 32.6%
CCC(C)n1nccc1NC(=O)C(C)Cl (stereo unspecified) | inconclusive: 19.8%
Cc1nc(NC(=O)c2ccco2)sc1-c1csc(Nc2ccc(Cl)cc2)n1 | inconclusive: 29.3%
CCCCC1C(=O)N(c2ccccc2)N(c2ccc(O)cc2)C1=O (stereo unspecified) | inconclusive: 32.9%
CCOC(=O)/C(C#N)=C/c1ccc(OCC(=O)Nc2ccccc2)c(OC)c1 | inconclusive: 37.9%
O=C(NC(=S)NNC(=O)c1ccccc1O)c1ccccc1 | inconclusive: 32.2%
Cc1ccc(-c2n[nH]c3c2C(c2ccccc2)N(c2ccc(C(=O)O)cc2)C3=O)cc1 (stereo unspecified) | inconclusive: 24.7%

SMILES | inhibition
O=C(c1n[nH]c2ccccc12)N1CCOCC1 | inconclusive: 29.9%
CCOc1ccc(NC(C(=O)Nc2cccc(C(C)=O)c2)c2ccccc2)cc1 (stereo unspecified) | inconclusive: 27.5%
COC(=O)CN1C(=O)N/C(=C/c2ccccc2OC)C1=O | inconclusive: 32.1%
CC(C)(CO)[C@@H](O)C(=O)NCCC(=O)O | inconclusive: 26.3%
CN(C)S(=O)(=O)c1ccc(NC(=O)/C=C/c2ccccc2Cl)cc1 | inactive: 9.89%
O=C(c1cc(O)c(O)c([N+](=O)[O-])c1)c1ccccc1F | active: 56.7%
CN(C)S(=O)(=O)Oc1cccc(C(=O)Nc2ccc(Cl)cc2)c1 | inactive: -3.24%
Cc1ccnc(SCCn2c(N3CC(C)CC(C)C3)nc3c2c(=O)n(C)c(=O)n3C)n1 (stereo unspecified) | inconclusive: 27%
Oc1c(Cl)cc(Cl)cc1C1Nc2ccccc2-n2cccc21 (stereo unspecified) | inconclusive: 30%
O=C1c2ccccc2CC1Sc1nnc(-c2ccncc2)o1 (stereo unspecified) | inconclusive: 27.7%
Nc1nc2ccc([N+](=O)[O-])c(N)c2s1 | inconclusive: 24.7%
CCOC(=O)CNS(=O)(=O)Cc1ccccc1 | inconclusive: 27.2%
CC(C)C(=O)Nc1ccc(Nc2ccccc2)cc1 | inconclusive: 31.2%
O=C(/C=C/c1cccs1)c1ccc([N+](=O)[O-])cc1 | inconclusive: 29.6%
CC1=NN(c2ccccc2)C(=O)C1c1ccccc1 (stereo unspecified) | inconclusive: 27.7%
O=S(=O)(c1ccc(F)cc1)n1ccc(-c2cnc(-c3ccccc3)s2)n1 | inactive: 1.96%
CC(C)=CCC/C(C)=C/CNC(=O)C[C@H]1C[C@H](C(=O)N2CCOCC2)[C@@]2(C)c3[nH]c4ccc(Cl)cc4c3CCN2C1=O | inconclusive: 19.9%
CCOc1ccc2nc(NC(=O)CN3CCC(n4nnc5cc(F)ccc54)CC3)sc2c1 | inconclusive: 36.4%
Cc1ccc(C(=O)N2CCCC(CCC(=O)NCc3ccc(F)c(F)c3)C2)cn1 (stereo unspecified) | inconclusive: 32.6%
COc1ccc(S(=O)(=O)N2CCCCCC2)cc1NC(=O)c1c2c(nc3ccccc13)CCN(Cc1ccccc1)C2 | inconclusive: 32.5%
